Like-named read-outs stand apart in the source and are kept apart here. Positions of bridges follow the written chain, without caps; N, C: chain ends. Non-standard residues stand in square brackets, D forms with d. Residues, ends and D or L forms follow the SMILES beside them. *: point of attachment. Ileψ(thiazoline)Cys = CC[C@H](C)[C@H](N)C1=N[C@H](C(=O)*)CS1; dOrn = NCCC[C@@H](N)C(=O)O
How the values were obtained:
[1] = system: Staphylococcus epidermidis; assay: Zones of inhibition of antibiotic-treated catheter segments with daily transfer to fresh plates; assay type: cell-based; conditions: catheter treated with 5 percent (w/v) antibiotic
[2] = catheter TREATMENT: 5% ANTIBIOTIC

Row | Compound | Zones of Inhibition ([1]; DAY 1) | Zones of Inhibition ([1]; DAY 4) | Zones of Inhibition ([1]; DAY 7) | Zones of Inhibition Against Pseudomonas aeruginosa (Pseudomonas aeruginosa; [2]) | further results
1 | CC[C@H](C)[C@H](N)C1=N[C@H](C(=O)N[C@@H](CC(C)C)C(=O)N[C@H](CCC(=O)O)C(=O)N[C@H](C(=O)N[C@H]2CCCCNC(=O)[C@H](CC(N)=O)NC(=O)[C@@H](CC(=O)O)NC(=O)[C@H](Cc3cnc[nH]3)NC(=O)[C@@H](Cc3ccccc3)NC(=O)[C@H]([C@@H](C)CC)NC(=O)[C@@H](CCCN)NC2=O)[C@@H](C)CC)CS1 [Bacitracin, bacitracin] ({Ileψ(thiazoline)Cys}-L[dE]IK[dOrn]I[dF]H[dD]N; lactam 4-C) |  |  |  |  | Zones of Inhibition Against Pseudomonas aeruginosa (Pseudomonas aeruginosa; 24 h): 0 mm
2 | CCn1cc(C(=O)O)c(=O)c2cc(F)c(N3CCNCC3)cc21 [Norfloxacin (Nf), norfloxacin] | >25 mm | 10 mm | 8 mm | 25 mm | 
3 | Clc1ccc(COC(Cn2ccnc2)c2ccc(Cl)cc2Cl)c(Cl)c1 (centres unmarked) [Miconazole, miconazole] |  |  |  | 0 mm | 
4 | bismuth sulfadiazine |  |  |  |  | Zones of Inhibition Against Pseudomonas aeruginosa (Pseudomonas aeruginosa; catheter treated with 2% Bismuth Salt): 6.5 mm; Zones of Inhibition Against Pseudomonas aeruginosa (Pseudomonas aeruginosa; catheter treated with 2% Bismuth Salt + 3% Minocycline): 15.5 mm
5 | CO[C@H]1/C=C/O[C@@]2(C)Oc3c(C)c(O)c4c(O)c(c(/C=N/N5CCN(C)CC5)c(O)c4c3C2=O)NC(=O)/C(C)=C\C=C\[C@H](C)[C@H](O)[C@@H](C)[C@@H](O)[C@@H](C)[C@H](OC(C)=O)[C@@H]1C [Rifampin (R), rifampin] |  |  |  | 8.0 mm | 
6 | NC[C@H]1O[C@H](O[C@H]2[C@H](O)[C@@H](O[C@H]3O[C@H](CO)[C@@H](O)[C@H](N)[C@H]3O)[C@H](N)C[C@@H]2N)[C@H](N)C[C@@H]1O [Tobramycin (Tb), tobramycin] | >25 mm | 7 mm | 0 mm | 27 mm | 
7 | CC(C)(O/N=C(\C(=O)N[C@@H]1C(=O)N2C(C(=O)[O-])=C(C[n+]3ccccc3)CS[C@H]12)c1csc(N)n1)C(=O)O [Ceftazidine, ceftazidine] |  |  |  | 28 mm | 
8 | gentamycin |  |  |  | 22 mm | 
9 | CN(C)c1ccc(O)c2c1C[C@H]1C[C@H]3[C@H](N(C)C)C(O)=C(C(N)=O)C(=O)[C@@]3(O)C(O)=C1C2=O [Minocycline (M), minocycline] | >25 mm | 26 mm | 15 mm | 0 mm | 
10 | Cc1onc(-c2c(Cl)cccc2Cl)c1C(=O)N[C@@H]1C(=O)N2[C@@H]1SC(C)(C)[C@@H]2C(=O)O [Dicloxacillin, dicloxacillin] |  |  |  | 0 mm | 
